Results from patent publication US11230543B2, “Biaryl monobactam compounds and methods of use thereof for the treatment of bacterial infections” (priority 2015, dated 2022).
Where a name gives a salt, the structure may show the parent alone. At least one read-out could not be matched to a standard name with certainty.

Tests used:
[1] = system: Escherichia coli expressing NDM-1 (CLB30016); test: Antibiotic activity: growth inhibitory concentration (OD600), Escherichia coli CLB30016; format: cell-based; conditions: lowest concentration inhibiting 95% of bacterial growth; in the presence of β lactamase inhibitor Relebactam 4 μg/mL; 35±2° C. for 22 hours; tested range 100 μM to 0.098 μM
Experimental: (§1) Antibiotic Activity: Determination of Growth Inhibitory Concentration
(§2) The concentrations of compounds required to inhibit the growth of various strains of bacteria were determined in an assay that assessed bacterial growth by measuring optical density at 600 nm (OD600). The bacterial strains tested included the clinical strains Escherichia coli expressing NDM-1 (CLB30016), Klebsiella pneumoniae expressing KPC-1 (CL6569), Acinetobacter baumannii expressing TEM-1, AmpC, and Oxa-24/40 (CL6188) and Pseudomonas aeruginosa expressing AmpC (CL5701). All compounds were tested in the presence of a β lactamase inhibitor (BLi, Relebactam) in 384-well microplates. The clinical strains were stored as frozen single use stocks, thawed and diluted into 1.1× cation-adjusted Mueller-Hinton II broth to achieve approximately 2×10^5 CFU/mL. Test compounds were dissolved in DMSO and diluted 1:50 in the assay, resulting in a final concentration range of 100 μM to 0.098 μM. On the day of the assay, 1 μL of test compound was added to the plate followed by 4 μL of 50 μg/mL BLi in MOPS buffer and 45 μL of diluted bacteria. Plates were centrifuged at 1000 rpm for 30 seconds, shaken at approximately 800 rpm for 1 minute, and incubated at 35±2° C. for 22 hours. The concentration of BLi used in the assay was 4 μg/mL. At the end of the incubation, absorbance at 600 nm was determined using a spectrophotometer. Inhibition was quantitated by identifying the lowest concentration of test compound that was required to inhibit 95% of the growth of the bacteria. The results for Examples 1-126 are reported in Table I, expressed as the concentration of compound that inhibited 95% of bacterial growth (Minimum Inhibitory Threshold Concentration; MITC95).

[2] = system: Acinetobacter baumannii expressing TEM-1, AmpC, and Oxa-24/40 (CL6188); test: Antibiotic activity: growth inhibitory concentration (OD600), Acinetobacter baumannii CL6188; format: cell-based; conditions: lowest concentration inhibiting 95% of bacterial growth; in the presence of β lactamase inhibitor Relebactam 4 μg/mL; 35±2° C. for 22 hours; tested range 100 μM to 0.098 μM
Experimental: as §1, §2

## CC1(C)[C@H](NC(=O)/C(=N\O[C@@H](COc2ccc(-c3cn(CCCN)[n+](C[C@@H]4CCNC4)c3)cc2)C(=O)O)c2csc(N)n2)C(=O)N1OS(=O)(=O)[O-] [Example 53, (S)-3-((Z)-2-(((S)-2-(4-(1-(3-aminopropyl)-2-(((R)-pyrrolidin-3-yl)methyl)-1H-pyrazol-2-ium-4-yl)phenoxy)-1-carboxyethoxy)imino)-2-(2-aminothiazol-4-yl)acetamido)-2,2-dimethyl-4-oxoazetidin-1-yl sulfate]
[1]
  EC_CLB30016 MITC95: 3.125 µM
[2]
  AB_CL6188 MITC95: 1.563 µM

## C[n+]1c(N)c(-c2ccc(OC[C@H](O/N=C(\C(=O)N[C@@H]3C(=O)N(OS(=O)(=O)[O-])C3(C)C)c3nc(N)sc3Cl)C(=O)O)cc2F)cn1CCCN [Example 48, (S)-3-((Z)-2-(((S)-2-(4-(3-Amino-1-(3-aminopropyl)-2-methyl-1H-pyrazol-2-ium-4-yl)-3-fluorophenoxy)-1-carboxyethoxy)imino)-2-(2-amino-5-chlorothiazol-4-yl)acetamido)-2,2-dimethyl-4-oxoazetidin-1-yl sulfate]
[1]
  EC_CLB30016 MITC95: 12.5 µM
[2]
  AB_CL6188 MITC95: 12.5 µM

## C[n+]1ccc(-c2ccc(OC[C@H](O/N=C(\C(=O)N[C@@H]3C(=O)N(OS(=O)(=O)[O-])C3(C)C)c3csc(N)n3)C(=O)O)cc2)cc1NCC1CNC1 [Example 65, (S)-3-((Z)-2-(2-aminothiazol-4-yl)-2-(((S)-2-(4-(2-((azetidin-3-ylmethyl)amino)-1-methylpyridin-1-ium-4-yl)phenoxy)-1-carboxy-ethoxy)imino)acetamido)-2,2-dimethyl-4-oxoazetidin-1-yl sulfate]
[1]
  EC_CLB30016 MITC95: 1.563 µM
[2]
  AB_CL6188 MITC95: 3.125 µM

## CC1(C)[C@H](NC(=O)/C(=N\OCCOc2ccc(-n3cc[n+](CCCN)c3)nc2)c2csc(N)n2)C(=O)N1OS(=O)(=O)[O-] [Example 35, (S,Z)-3-(2-((2-((6-(3-(3-aminopropyl)-1H-imidazol-3-ium-1-yl)pyridin-3-yl)oxy)ethoxy)imino)-2-(2-aminothiazol-4-yl)acetamido)-2,2-dimethyl-4-oxoazetidin-1-yl sulfate 2,2,2-trifluoroacetate]
[1]
  EC_CLB30016 MITC95: 25 µM
[2]
  AB_CL6188 MITC95: 6.25 µM

## C[n+]1cc(-c2ccc(OC[C@H](O/N=C(\C(=O)N[C@@H]3C(=O)N(OS(=O)(=O)[O-])C3(C)C)c3csc(N)n3)C(=O)O)cc2)ccc1NC(CN)CN [Example 82, (S)-3-((Z)-2-(2-aminothiazol-4-yl)-2-(((S)-1-carboxy-2-(4-(6-((1,3-diaminopropan-2-yl)amino)-1-methylpyridin-1-ium-3-yl)phenoxy)ethoxy)imino)acetamido)-2,2-dimethyl-4-oxoazetidin-1-yl sulfate]
[1]
  EC_CLB30016 MITC95: 1.563 µM
[2]
  AB_CL6188 MITC95: 1.563 µM

## CC1(C)[C@H](NC(=O)/C(=N\O[C@@H](COc2ccc(-c3cn(CCCN)[n+](CC(F)CN)c3)cc2)C(=O)O)c2csc(N)n2)C(=O)N1OS(=O)(=O)[O-] (single isomer, unassigned) [Example 120]
[1]
  EC_CLB30016 MITC95: 1.563 µM
[2]
  AB_CL6188 MITC95: 1.563 µM

## C[n+]1cn(CCCN)cc1-c1ccc(OC[C@H](O/N=C(\C(=O)NC2C(=O)N(OS(=O)(=O)[O-])C2(C)C)c2csc(N)n2)C(=O)O)cc1 (stereo partly drawn) [Example 2, (S)-3-((Z)-2-(2-aminothiazol-4-yl)-2-(((S)-2-(4-(1-(3-ammoniopropyl)-3-methyl-1H-imidazol-3-ium-4-yl)phenoxy)-1-carboxyethoxy)imino)acetamido)-2,2-dimethyl-4-oxoazetidin-1-yl-sulfate]
[1]
  EC_CLB30016 MITC95: 12.5 µM
[2]
  AB_CL6188 MITC95: 1.563 µM

## COP(=O)(O)[C@H](COc1ccc(-c2cn(CCCN)[n+](C)c2)cc1)O/N=C(\C(=O)N[C@@H]1C(=O)N(OS(=O)(=O)O)C1(C)C)c1csc(N)n1.O=C(O)C(F)(F)F [Example 41, (3S)-3-((Z)-2-(((1R)-2-(4-(1-(3-aminopropyl)-2-methyl-1H-pyrazol-2-ium-4-yl)phenoxy)-1-(hydroxy(methoxy)phosphoryl)ethoxy)imino)-2-(2-aminothiazol-4-yl)acetamido)-2,2-dimethyl-4-oxoazetidin-1-yl sulfate compound with 2,2,2-trifluoroacetic acid (1:1)]
[1]
  EC_CLB30016 MITC95: 25 µM
[2]
  AB_CL6188 MITC95: 12.5 µM

## CC1(C)[C@H](NC(=O)/C(=N\O[C@@H](COc2ccc(-c3cnc(NCCN)[n+](CC4CNC4)c3)cc2)C(=O)O)c2csc(N)n2)C(=O)N1OS(=O)(=O)[O-] [Example 99, (S)-3-((Z)-2-(((S)-2-(4-(2-((2-aminoethyl)amino)-1-(azetidin-3-ylmethyl)pyrimidin-1-ium-5-yl)phenoxy)-1-carboxyethoxy)imino)-2-(2-aminothiazol-4-yl)acetamido)-2,2-dimethyl-4-oxoazetidin-1-yl sulfate]
[1]
  EC_CLB30016 MITC95: 6.25 µM
[2]
  AB_CL6188 MITC95: 1.563 µM

## C[n+]1cc(-c2ccc(OC[C@H](O/N=C(\C(=O)N[C@@H]3C(=O)N(OS(=O)(=O)O)C3(C)C)c3csc(N)n3)C(=O)O)cc2)cn1CCCNCC1CNC1 [Example 103, (S)-3-((E)-2-(2-aminothiazol-4-yl)-2-(((S)-2-(4-(1-(3-((azetidin-3-ylmethyl)amino)-propyl)-2-methyl-1H-pyrazol-2-ium-4-yl)phenoxy)-1-carboxyethoxy)imino)acetamido)-2,2-dimethyl-4-oxoazetidin-1-yl sulfate, 3TFA]
[1]
  EC_CLB30016 MITC95: 3.125 µM
[2]
  AB_CL6188 MITC95: 1.563 µM

## C[n+]1cc(-c2ccc(OC[C@H](O/N=C(\C(=O)N[C@@H]3C(=O)N(OS(=O)(=O)O)C3(C)C)c3csc(N)n3)C(=O)O)cc2F)cn1CC(N)CN (single isomer, unassigned) [Example 45]
[1]
  EC_CLB30016 MITC95: 6.25 µM
[2]
  AB_CL6188 MITC95: 3.125 µM

## Cn1c(-c2ccc(OC[C@](C)(O/N=C(\C(=O)N[C@@H]3C(=O)N(OS(=O)(=O)O)C3(C)C)c3csc(N)n3)C(=O)O)cc2)cn(CCCN)c1=N [Example 107, (S)-3-((Z)-2-((((S)-1-(4-(1-(3-aminopropyl)-2-imino-3-methyl-2,3-dihydro-1H-imidazol-4-yl)phenoxy)-2-carboxypropan-2-yl)oxy)imino)-2-(2-aminothiazol-4-yl)acetamido)-2,2-dimethyl-4-oxoazetidin-1-yl sulfate]
[1]
  EC_CLB30016 MITC95: 100 µM
[2]
  AB_CL6188 MITC95: 12.5 µM

## CC1(C)[C@H](NC(=O)/C(=N\O[C@@H](COc2ccc(-n3cc[n+](CCC[N+](C)(C)C)c3)nc2)C(=O)O)c2csc(N)n2)C(=O)N1OS(=O)(=O)O [Example 110, (S)-3-((Z)-2-(2-aminothiazol-4-yl)-2-(((S)-1-carboxy-2-((6-(3-(3-(trimethylammonio)propyl)-1H-imidazol-3-ium-1-yl)pyridin-3-yl)oxy)ethoxy)imino)acetamido)-2,2-dimethyl-4-oxoazetidin-1-yl sulfate]
[1]
  EC_CLB30016 MITC95: 50 µM
[2]
  AB_CL6188 MITC95: 12.5 µM

## C[n+]1cc(-c2ccc(OC[C@](C)(O/N=C(\C(=O)N[C@@H]3C(=O)N(OS(=O)(=O)[O-])C3(C)C)c3csc(N)n3)C(=O)O)cc2F)cn1CCCN [Example 105, (S)-3-((Z)-2-((((Sn-1-(4-(1-(3-aminopropyl)-2-methyl-1H-pyrazol-2-ium-4-yl)-3-fluorophenoxy)-2-carboxypropan-2-yl)oxy)imino)-2-(2-aminothiazol-4-yl)acetamido)-2,2-dimethyl-4-oxoazetidin-1-yl sulfate]
[1]
  EC_CLB30016 MITC95: 12.5 µM
[2]
  AB_CL6188 MITC95: 6.25 µM

## C[C@H]1[C@H](NC(=O)/C(=N\O[C@@H](COc2ccc(-c3cn(CCCN)[n+](C)c3)cc2)c2nn[nH]n2)c2csc(N)n2)C(=O)N1S(=O)(=O)O.O=C([O-])C(F)(F)F [Example 30, 1-(3-aminopropyl)-4-(4-((R)-2-((((Z)-1-(2-aminothiazol-4-yl)-2-(((2S,3S)-2-methyl-4-oxo-1-sulfoazetidin-3-yl)amino)-2-oxoethylidene)amino)oxy)-2-(2H-tetrazol-5-yl)ethoxy)phenyl)-2-methyl-1H-pyrazol-2-ium 2,2,2-trifluoroacetate]
[1]
  EC_CLB30016 MITC95: 25 µM
[2]
  AB_CL6188 MITC95: 25 µM

## C[n+]1cc(-c2ccc(OC[C@](C)(O/N=C(\C(=O)N[C@@H]3C(=O)N(OS(=O)(=O)O)C3(C)C)c3csc(N)n3)C(=O)O)cc2)cn1CCCN [Example 39, (S)-3-((Z)-2-((((S)-1-(4-(1-(3-aminopropyl)-2-methyl-1H-pyrazol-2-ium-4-yl)phenoxy)-2-carboxypropan-2-yl)oxy)imino)-2-(2-aminothiazol-4-yl)acetamido)-2,2-dimethyl-4-oxoazetidin-1-yl sulfate]
[2]
  AB_CL6188 MITC95: 7.292 µM
